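Five concentrations, 48 hours, 96-well plates. TGI denotes the concentration required for complete inhibition of growth.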 Some entries of the source have several records that differ or are many. This list holds those alone. The source may hold further records. A record mostly stands for its own series of concentrations, not given here; some values may only mark the edge of a range.
Tested on: MDA-MB-468 breast
Test: NCI tumour cell line growth inhibition, 48 h

With `CC[C@H](C)[C@H](NC(=O)[C@H]1CCCCN1C)C(=O)N(C)[C@H](C[C@@H](OC(C)=O)c1cccc(C(=O)N[C@@H](Cc2ccccc2)C[C@H](C)C(=O)O)n1)C(C)C` the TGI was 279 nM and > 25 µM.

From PubChem BioAssay (NCI)
